Source: the supplement of paper PMC4604168 (melanoma cell lines)
Some of the results follow. Repeats are few or missing, and single values can be far off.

Experiments:
Assay in all cases: cell count relative to DMSO control; melanoma cells; higher = more viable cells
Settings in all cases: library dose: low library concentration; 72 h
WM115 = tested on: WM115
WM1716 = tested on: WM1716
WM1745 = tested on: WM1745
WM3526 = tested on: WM3526
WM3619 = tested on: WM3619
WM451Lu = tested on: WM451Lu
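Also: cell number obtained by counting DAPI-stained nuclei in high-throughput microscope images with image analysis software, screen run in 1,536-well plates.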

| SMILES | cell count (WM115) | cell count (WM1716) | cell count (WM1745) | cell count (WM3526) | cell count (WM3619) | cell count (WM451Lu) |
| --- | --- | --- | --- | --- | --- | --- |
| CO[C@H]1C[C@@H]2CC[C@@H](C)[C@@](O)(O2)C(=O)C(=O)N2CCCC[C@H]2C(=O)O[C@H]([C@H](C)C[C@@H]2CC[C@@H](OCCO)[C@H](OC)C2)CC(=O)[C@H](C)/C=C(\C)[C@@H](O)[C@@H](OC)C(=O)[C@H](C)C[C@H](C)/C=C/C=C/C=C/1C [everolimus] + CNC(=O)c1cc(Oc2ccc(NC(=O)Nc3ccc(Cl)c(C(F)(F)F)c3)cc2)ccn1 [sorafenib] (first compound 0.02 µM, partner dose 0.4 µM) | 94.2% | 83.2% | 92.3% | 76% | 77.2% | 72.8% |
| CC(=O)c1c(C)c2cnc(Nc3ccc(N4CCNCC4)cn3)nc2n(C2CCCC2)c1=O [palbociclib] + c1cc(-c2cnn3cc(-c4ccc(OCCN5CCCCC5)cc4)cnc23)ccn1 [Dorsomorphin] (first compound 0.04 µM, partner dose 0.4 µM) | 76.2% | 69.4% | 77.3% | 62.7% | 89.8% | 61.6% |
| CC(=O)O[C@@]12CO[C@@H]1C[C@H](O)[C@@]1(C)C(=O)[C@H](O)C3=C(C)[C@@H](OC(=O)[C@H](O)[C@@H](NC(=O)OC(C)(C)C)c4ccccc4)C[C@@](O)([C@@H](OC(=O)c4ccccc4)[C@H]21)C3(C)C [Docetaxel] + C[C@@H]1CCN(C(=O)CC#N)C[C@@H]1N(C)c1ncnc2[nH]ccc12 [CP690550] (first compound 0.0001 µM, partner dose 1 µM) | 71.5% | 25.8% | 50.1% | 35.9% | 68.2% | 49.3% |
| CO[C@H]1C[C@@H]2CC[C@@H](C)[C@@](O)(O2)C(=O)C(=O)N2CCCC[C@H]2C(=O)O[C@H]([C@H](C)C[C@@H]2CC[C@@H](OCCO)[C@H](OC)C2)CC(=O)[C@H](C)/C=C(\C)[C@@H](O)[C@@H](OC)C(=O)[C@H](C)C[C@H](C)/C=C/C=C/C=C/1C [everolimus] + O=S(=O)(c1ccccc1)N(CC(F)(F)F)c1ccc(C(O)(C(F)(F)F)C(F)(F)F)cc1 [T0901317] (first compound 0.02 µM, partner dose 1.4 µM) | 79.5% | 62.5% | 85.3% | 63.6% | 60.9% | 78% |
| Nc1ccn([C@@H]2O[C@H](CO)[C@@H](O)C2(F)F)c(=O)n1 [gemcitabine] + O=C(O)c1ccc(-c2c[nH]c3ncc(-c4ccccc4)cc23)cc1C1CCCC1 [GSK650394] (first compound 0.0004 µM, partner dose 0.16 µM) | 104% | 99.1% | 79.2% | 110% | 71.3% | 126% |
| Nc1ncn([C@H]2C[C@H](O)[C@@H](CO)O2)c(=O)n1 [decitabine] + COc1cc(N2CCC(N3CCN(C)CC3)CC2)ccc1Nc1ncc(Cl)c(Nc2ccccc2S(=O)(=O)C(C)C)n1 [NVP-TAE684] (first compound 0.1 µM, partner dose 0.08 µM) | 72.7% | 89.8% | 92.2% | 86.3% | 110% | 115% |
| CC(=O)c1c(C)c2cnc(Nc3ccc(N4CCNCC4)cn3)nc2n(C2CCCC2)c1=O [palbociclib] + O=c1cc(-c2cccc3c2Sc2ccccc2S3)oc(N2CCOCC2)c1 [KU55933] (first compound 0.04 µM, partner dose 1 µM) | 84.7% | 66.1% | 76.8% | 55.5% | 68.8% | 56.7% |
| CO[C@H]1C[C@@H]2CC[C@@H](C)[C@@](O)(O2)C(=O)C(=O)N2CCCC[C@H]2C(=O)O[C@H]([C@H](C)C[C@@H]2CC[C@@H](OCCO)[C@H](OC)C2)CC(=O)[C@H](C)/C=C(\C)[C@@H](O)[C@@H](OC)C(=O)[C@H](C)C[C@H](C)/C=C/C=C/C=C/1C [everolimus] + Cn1c(Nc2ccc(C(F)(F)F)cc2)nc2cc(Oc3ccnc(-c4ncc(C(F)(F)F)[nH]4)c3)ccc21 [CHIR265] (first compound 0.02 µM, partner dose 0.08 µM) | 52.4% | 60% | 71.7% | 45.7% | 74.9% | 81.9% |
| Nc1ccn([C@@H]2O[C@H](CO)[C@@H](O)C2(F)F)c(=O)n1 [gemcitabine] + O=c1cc(-c2cccc3c2Sc2ccccc2S3)oc(N2CCOCC2)c1 [KU55933] (first compound 0.0004 µM, partner dose 1 µM) | 102% | 97.8% | 78.9% | 54.1% | 71.5% | 128% |
| Nc1ccn([C@@H]2O[C@H](CO)[C@@H](O)C2(F)F)c(=O)n1 [gemcitabine] + COc1ccc(Cl)c(Nc2nc3ccccc3nc2NS(=O)(=O)c2cccc(NC(=O)C(C)(C)N)c2)c1 [XL147] (first compound 0.0004 µM, partner dose 0.8 µM) | 97.4% | 93.8% | 68.7% | 95.4% | 77.8% | 76.7% |
| CC(=O)O[C@@]12CO[C@@H]1C[C@H](O)[C@@]1(C)C(=O)[C@H](O)C3=C(C)[C@@H](OC(=O)[C@H](O)[C@@H](NC(=O)OC(C)(C)C)c4ccccc4)C[C@@](O)([C@@H](OC(=O)c4ccccc4)[C@H]21)C3(C)C [Docetaxel] + N#Cc1c(O)c2c(-c3ccc(-c4ccccc4O)cc3)csc2[nH]c1=O [A769662] (first compound 0.0001 µM, partner dose 2 µM) | 66.3% | 41.9% | 53.5% | 43.4% | 79.7% | 74.3% |
| Nc1nc(F)nc2c1ncn2[C@@H]1O[C@H](CO)[C@@H](O)[C@@H]1O [fludarabine] + OCCn1cc(-c2cnc3nnn(Cc4ccc5ncccc5c4)c3n2)cn1 [PF04217903] (first compound 0.2 µM, partner dose 1 µM) | 75.6% | 72.2% | 92.7% | 34.7% | 85.7% | 62.7% |
| CC(=O)O[C@@]12CO[C@@H]1C[C@H](O)[C@@]1(C)C(=O)[C@H](O)C3=C(C)[C@@H](OC(=O)[C@H](O)[C@@H](NC(=O)OC(C)(C)C)c4ccccc4)C[C@@](O)([C@@H](OC(=O)c4ccccc4)[C@H]21)C3(C)C [Docetaxel] + CNC(=O)c1cc(Oc2ccc(NC(=O)Nc3ccc(Cl)c(C(F)(F)F)c3)cc2)ccn1 [sorafenib] (first compound 0.0001 µM, partner dose 0.4 µM) | 60.2% | 32.9% | 52.3% | 38.5% | 49.3% | 63.2% |
| Nc1nc(F)nc2c1ncn2[C@@H]1O[C@H](CO)[C@@H](O)[C@@H]1O [fludarabine] + Cn1cc(/C=C2\C(=O)Nc3cccnc32)c2ccccc21 [GW441756] (first compound 0.2 µM, partner dose 0.4 µM) | 101% | 113% | 100% | 28.4% | 137% | 59.9% |
| Nc1ncn([C@H]2C[C@H](O)[C@@H](CO)O2)c(=O)n1 [decitabine] + OCc1c[nH]c2ccccc12 [Indole-3-carbinol] (first compound 0.1 µM, partner dose 0.8 µM) | 100% | 87% | 102% | 89% | 82.2% | 88.7% |
| CC(=O)c1c(C)c2cnc(Nc3ccc(N4CCNCC4)cn3)nc2n(C2CCCC2)c1=O [palbociclib] + O=C1NC(=O)/C(=C/c2ccc(-c3ccc(F)cc3O)o2)S1 [AS252424] (first compound 0.04 µM, partner dose 1 µM) | 66.8% | 57.5% | 72.8% | 54.3% | 52.3% | 68.6% |
| Nc1ccn([C@@H]2O[C@H](CO)[C@@H](O)C2(F)F)c(=O)n1 [gemcitabine] + CC1(C)NC(=O)N(c2ccc([N+](=O)[O-])c(C(F)(F)F)c2)C1=O [nilutamide] (first compound 0.0004 µM, partner dose 1 µM) | 93.9% | 102% | 79.1% | 115% | 77.8% | 108% |
| CC(=O)c1c(C)c2cnc(Nc3ccc(N4CCNCC4)cn3)nc2n(C2CCCC2)c1=O [palbociclib] + CO[C@@H]1[C@H](N(C)C(=O)c2ccccc2)C[C@H]2O[C@]1(C)n1c3ccccc3c3c4c(c5c6ccccc6n2c5c31)C(=O)NC4 [Midostaurin] (first compound 0.04 µM, partner dose 0.08 µM) | 69.1% | 51.2% | 76.2% | 73.2% | 69.1% | 73.9% |
| Nc1ccn([C@@H]2O[C@H](CO)[C@@H](O)C2(F)F)c(=O)n1 [gemcitabine] + CN(C)S(=O)(=O)c1ccc2c(c1)/C(=C/c1cc3c([nH]1)CCCC3)C(=O)N2 [SU6656] (first compound 0.0004 µM, partner dose 0.4 µM) | 85.1% | 134% | 73.8% | 96.1% | 86.2% | 113% |
| Nc1ccn([C@@H]2O[C@H](CO)[C@@H](O)C2(F)F)c(=O)n1 [gemcitabine] + Cc1ccc(NC(=O)c2cccc(N(C)C)c2)cc1NC(=O)c1ccc(O)cc1 [ZM336372] (first compound 0.0004 µM, partner dose 2 µM) | 97.1% | 117% | 78.5% | 101% | 92.5% | 91.2% |
| CC(=O)O[C@@]12CO[C@@H]1C[C@H](O)[C@@]1(C)C(=O)[C@H](O)C3=C(C)[C@@H](OC(=O)[C@H](O)[C@@H](NC(=O)OC(C)(C)C)c4ccccc4)C[C@@](O)([C@@H](OC(=O)c4ccccc4)[C@H]21)C3(C)C [Docetaxel] + COc1ccc(COc2ccc(Cc3cnc(N)nc3N)cc2OC)cc1 [GW2580] (first compound 0.0001 µM, partner dose 1 µM) | 57.8% | 31.8% | 26% | 24.8% | 43.2% | 40.9% |
